From paper PMC12292926
Results are given in words; binding and its absence hold for the method and conditions named. Binding seen in cells or lysates may run through a third protein. Some binding calls cover weakened binding; strength is not graded here. For part of these data: Sequences can lack the tags named with a protein.

Amino acid sequences for entries named in this document (tags omitted). A change or cut given only in a name is not applied to a line headed by its entry. Chains listed by the source or under a name are the forms on record and can include a tag or linker. Residues count along the entry.
UniProt Q9H4L4: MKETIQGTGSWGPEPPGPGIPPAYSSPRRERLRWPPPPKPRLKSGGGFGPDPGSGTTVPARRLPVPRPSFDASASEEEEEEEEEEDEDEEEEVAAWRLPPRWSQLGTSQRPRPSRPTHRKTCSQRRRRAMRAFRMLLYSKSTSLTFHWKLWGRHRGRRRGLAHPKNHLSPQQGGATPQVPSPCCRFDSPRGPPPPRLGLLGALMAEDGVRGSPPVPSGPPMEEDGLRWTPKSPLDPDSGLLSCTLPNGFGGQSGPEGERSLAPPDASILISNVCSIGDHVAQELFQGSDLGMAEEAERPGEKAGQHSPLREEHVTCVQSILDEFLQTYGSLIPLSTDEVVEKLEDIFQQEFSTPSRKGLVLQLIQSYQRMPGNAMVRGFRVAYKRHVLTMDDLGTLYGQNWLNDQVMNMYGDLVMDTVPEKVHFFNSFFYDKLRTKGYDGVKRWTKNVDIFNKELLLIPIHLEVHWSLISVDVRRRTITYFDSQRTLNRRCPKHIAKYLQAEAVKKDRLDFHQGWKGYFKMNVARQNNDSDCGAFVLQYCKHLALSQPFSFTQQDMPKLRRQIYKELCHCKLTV
SENP3 SUMO protease domain (residues 303 to 574), N-terminal FLAG tag: residues 303-574 of Q9H4L4
UniProt Q9NU22: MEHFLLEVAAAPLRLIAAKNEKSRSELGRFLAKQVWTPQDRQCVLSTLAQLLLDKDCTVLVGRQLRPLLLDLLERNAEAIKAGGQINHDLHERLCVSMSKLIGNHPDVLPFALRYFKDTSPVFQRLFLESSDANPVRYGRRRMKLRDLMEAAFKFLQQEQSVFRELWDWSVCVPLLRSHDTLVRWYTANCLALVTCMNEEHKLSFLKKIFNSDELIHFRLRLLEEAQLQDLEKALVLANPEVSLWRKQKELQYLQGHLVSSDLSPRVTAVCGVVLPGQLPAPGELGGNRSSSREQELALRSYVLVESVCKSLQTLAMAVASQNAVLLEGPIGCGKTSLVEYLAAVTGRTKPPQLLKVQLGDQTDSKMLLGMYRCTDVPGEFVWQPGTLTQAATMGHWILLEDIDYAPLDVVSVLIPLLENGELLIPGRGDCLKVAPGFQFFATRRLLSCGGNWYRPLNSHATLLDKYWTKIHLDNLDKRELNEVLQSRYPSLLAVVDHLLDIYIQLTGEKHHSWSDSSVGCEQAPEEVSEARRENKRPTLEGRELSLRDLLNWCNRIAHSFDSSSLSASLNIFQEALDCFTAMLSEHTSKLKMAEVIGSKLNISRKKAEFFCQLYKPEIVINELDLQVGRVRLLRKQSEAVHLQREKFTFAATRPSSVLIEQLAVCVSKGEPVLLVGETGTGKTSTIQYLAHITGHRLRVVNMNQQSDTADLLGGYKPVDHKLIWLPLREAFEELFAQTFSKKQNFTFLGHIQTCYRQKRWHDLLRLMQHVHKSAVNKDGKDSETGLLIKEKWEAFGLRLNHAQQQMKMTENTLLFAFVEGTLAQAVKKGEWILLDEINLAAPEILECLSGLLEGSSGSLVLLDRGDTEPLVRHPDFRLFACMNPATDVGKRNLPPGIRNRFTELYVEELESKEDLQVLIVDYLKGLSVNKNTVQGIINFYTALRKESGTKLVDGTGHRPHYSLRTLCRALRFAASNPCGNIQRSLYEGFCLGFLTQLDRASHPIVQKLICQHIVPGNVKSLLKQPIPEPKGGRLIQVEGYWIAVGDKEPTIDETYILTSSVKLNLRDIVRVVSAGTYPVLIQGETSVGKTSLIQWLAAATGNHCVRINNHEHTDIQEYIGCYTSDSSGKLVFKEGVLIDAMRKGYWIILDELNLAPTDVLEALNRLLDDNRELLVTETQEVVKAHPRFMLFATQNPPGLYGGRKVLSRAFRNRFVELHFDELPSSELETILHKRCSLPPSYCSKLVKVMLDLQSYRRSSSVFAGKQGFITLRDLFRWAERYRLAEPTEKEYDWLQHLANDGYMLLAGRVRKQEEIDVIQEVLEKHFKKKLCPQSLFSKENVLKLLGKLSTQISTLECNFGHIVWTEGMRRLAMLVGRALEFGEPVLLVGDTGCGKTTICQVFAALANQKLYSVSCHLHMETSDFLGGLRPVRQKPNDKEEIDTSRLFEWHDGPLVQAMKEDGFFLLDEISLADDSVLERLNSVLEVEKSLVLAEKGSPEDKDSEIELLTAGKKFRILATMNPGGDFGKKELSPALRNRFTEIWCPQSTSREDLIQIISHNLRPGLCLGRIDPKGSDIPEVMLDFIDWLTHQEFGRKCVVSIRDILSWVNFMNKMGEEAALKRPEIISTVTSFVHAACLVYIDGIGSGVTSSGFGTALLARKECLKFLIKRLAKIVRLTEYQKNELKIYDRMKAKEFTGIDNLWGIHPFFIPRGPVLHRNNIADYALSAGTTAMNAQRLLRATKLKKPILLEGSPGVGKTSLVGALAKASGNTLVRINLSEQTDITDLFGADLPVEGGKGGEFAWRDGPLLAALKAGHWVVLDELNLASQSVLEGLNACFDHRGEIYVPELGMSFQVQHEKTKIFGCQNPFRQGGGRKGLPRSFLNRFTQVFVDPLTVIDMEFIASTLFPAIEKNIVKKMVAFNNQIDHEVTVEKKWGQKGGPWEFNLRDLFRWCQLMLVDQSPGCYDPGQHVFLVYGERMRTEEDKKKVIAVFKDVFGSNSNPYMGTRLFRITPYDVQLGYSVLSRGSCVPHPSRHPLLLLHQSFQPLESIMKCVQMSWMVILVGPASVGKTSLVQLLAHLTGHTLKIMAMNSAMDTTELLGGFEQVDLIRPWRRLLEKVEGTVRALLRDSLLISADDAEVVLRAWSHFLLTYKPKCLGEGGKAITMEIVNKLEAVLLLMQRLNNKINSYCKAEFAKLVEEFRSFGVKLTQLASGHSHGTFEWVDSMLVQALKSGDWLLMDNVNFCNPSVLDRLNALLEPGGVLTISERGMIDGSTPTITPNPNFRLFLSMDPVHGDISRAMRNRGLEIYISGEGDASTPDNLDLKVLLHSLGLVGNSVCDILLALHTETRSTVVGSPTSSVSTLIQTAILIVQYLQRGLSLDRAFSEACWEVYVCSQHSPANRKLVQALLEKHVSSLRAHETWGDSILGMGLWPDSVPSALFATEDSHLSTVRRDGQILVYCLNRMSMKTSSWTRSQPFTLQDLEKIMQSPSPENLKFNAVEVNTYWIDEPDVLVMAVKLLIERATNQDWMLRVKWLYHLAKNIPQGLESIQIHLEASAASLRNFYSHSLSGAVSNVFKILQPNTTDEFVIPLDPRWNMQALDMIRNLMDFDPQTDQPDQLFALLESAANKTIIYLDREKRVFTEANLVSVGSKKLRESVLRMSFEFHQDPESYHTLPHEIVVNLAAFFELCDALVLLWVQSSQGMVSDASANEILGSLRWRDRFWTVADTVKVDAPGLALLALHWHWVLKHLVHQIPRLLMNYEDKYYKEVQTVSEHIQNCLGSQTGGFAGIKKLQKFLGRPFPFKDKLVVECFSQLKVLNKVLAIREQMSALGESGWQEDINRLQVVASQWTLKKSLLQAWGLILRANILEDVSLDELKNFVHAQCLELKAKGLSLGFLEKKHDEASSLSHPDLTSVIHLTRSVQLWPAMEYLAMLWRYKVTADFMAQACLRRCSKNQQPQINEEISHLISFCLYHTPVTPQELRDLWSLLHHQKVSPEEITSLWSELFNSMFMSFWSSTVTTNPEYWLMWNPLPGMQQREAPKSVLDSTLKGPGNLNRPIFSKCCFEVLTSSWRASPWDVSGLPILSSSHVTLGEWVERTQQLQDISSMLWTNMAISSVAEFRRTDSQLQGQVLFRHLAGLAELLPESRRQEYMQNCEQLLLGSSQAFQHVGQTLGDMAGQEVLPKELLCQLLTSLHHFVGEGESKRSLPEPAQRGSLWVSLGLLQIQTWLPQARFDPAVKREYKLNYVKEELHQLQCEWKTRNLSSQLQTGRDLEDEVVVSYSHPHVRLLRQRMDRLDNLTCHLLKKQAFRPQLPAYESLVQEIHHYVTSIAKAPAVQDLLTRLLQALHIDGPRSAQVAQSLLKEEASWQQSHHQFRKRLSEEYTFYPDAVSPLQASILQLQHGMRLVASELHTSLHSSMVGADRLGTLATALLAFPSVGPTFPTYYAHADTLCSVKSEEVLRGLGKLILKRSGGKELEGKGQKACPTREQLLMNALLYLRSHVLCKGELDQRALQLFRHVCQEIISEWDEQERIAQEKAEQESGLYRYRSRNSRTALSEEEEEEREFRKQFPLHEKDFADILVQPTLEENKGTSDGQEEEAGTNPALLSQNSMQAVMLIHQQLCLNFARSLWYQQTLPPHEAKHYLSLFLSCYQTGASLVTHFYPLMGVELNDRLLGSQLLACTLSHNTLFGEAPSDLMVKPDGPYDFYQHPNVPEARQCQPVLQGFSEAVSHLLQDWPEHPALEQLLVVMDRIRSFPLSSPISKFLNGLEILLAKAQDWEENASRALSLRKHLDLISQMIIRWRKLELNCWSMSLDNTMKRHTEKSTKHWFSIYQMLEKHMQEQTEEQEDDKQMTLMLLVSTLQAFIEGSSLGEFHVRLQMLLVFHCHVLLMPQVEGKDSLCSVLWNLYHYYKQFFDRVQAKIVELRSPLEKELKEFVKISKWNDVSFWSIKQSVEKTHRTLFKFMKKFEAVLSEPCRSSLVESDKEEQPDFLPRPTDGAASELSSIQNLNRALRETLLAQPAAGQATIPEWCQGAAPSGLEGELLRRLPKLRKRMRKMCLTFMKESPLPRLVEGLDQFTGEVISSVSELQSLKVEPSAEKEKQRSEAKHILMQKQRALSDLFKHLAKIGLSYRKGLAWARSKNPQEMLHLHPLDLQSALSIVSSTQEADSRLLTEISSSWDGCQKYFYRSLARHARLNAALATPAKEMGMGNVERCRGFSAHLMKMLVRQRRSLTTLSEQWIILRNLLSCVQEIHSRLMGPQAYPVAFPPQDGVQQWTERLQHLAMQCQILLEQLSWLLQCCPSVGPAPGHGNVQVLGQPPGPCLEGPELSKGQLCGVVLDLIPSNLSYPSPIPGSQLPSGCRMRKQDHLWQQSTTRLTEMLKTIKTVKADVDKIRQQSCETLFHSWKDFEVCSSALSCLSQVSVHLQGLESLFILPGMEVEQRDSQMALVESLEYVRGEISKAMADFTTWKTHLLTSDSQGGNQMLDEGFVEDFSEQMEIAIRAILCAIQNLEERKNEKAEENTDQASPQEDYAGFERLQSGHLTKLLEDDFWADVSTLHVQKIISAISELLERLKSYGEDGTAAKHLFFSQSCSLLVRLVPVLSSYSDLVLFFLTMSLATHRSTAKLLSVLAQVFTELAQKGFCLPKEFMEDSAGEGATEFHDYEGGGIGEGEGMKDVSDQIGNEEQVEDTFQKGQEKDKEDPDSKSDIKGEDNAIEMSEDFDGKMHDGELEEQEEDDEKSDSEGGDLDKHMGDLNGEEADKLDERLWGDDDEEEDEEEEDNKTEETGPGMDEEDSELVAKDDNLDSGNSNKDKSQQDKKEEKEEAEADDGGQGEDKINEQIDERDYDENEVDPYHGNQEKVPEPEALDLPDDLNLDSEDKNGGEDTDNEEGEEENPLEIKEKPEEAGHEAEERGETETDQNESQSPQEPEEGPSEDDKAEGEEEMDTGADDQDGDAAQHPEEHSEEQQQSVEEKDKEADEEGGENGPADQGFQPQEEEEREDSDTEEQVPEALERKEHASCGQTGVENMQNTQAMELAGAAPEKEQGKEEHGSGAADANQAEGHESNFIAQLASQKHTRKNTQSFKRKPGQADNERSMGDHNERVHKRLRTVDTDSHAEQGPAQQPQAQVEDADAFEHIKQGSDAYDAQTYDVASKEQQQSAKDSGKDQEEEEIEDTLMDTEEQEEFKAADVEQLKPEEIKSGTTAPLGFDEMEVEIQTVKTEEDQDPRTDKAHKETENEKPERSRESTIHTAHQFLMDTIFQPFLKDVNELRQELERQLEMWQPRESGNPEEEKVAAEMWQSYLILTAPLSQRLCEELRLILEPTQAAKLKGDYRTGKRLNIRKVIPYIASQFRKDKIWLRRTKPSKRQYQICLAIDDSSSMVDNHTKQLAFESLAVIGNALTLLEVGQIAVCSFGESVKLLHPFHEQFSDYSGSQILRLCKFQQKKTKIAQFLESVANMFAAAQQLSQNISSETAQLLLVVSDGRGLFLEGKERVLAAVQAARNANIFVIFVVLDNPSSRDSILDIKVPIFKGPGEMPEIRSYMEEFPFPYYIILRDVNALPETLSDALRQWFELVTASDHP

What was measured:
[1] = biological target: FLAG PELP1 C terminus (residues 967 to 1130) (human) (UniProt Q8IZL8); experiment: co-IP; FLAG PELP1 C terminus (967 to 1130) expressed alone in cells; anti-FLAG purification; Western blot and total protein stain for endogenous MDN1
[2] = biological target: endogenous PELP1 (human (endogenous in HEK293FT)) (UniProt Q8IZL8); experiment: co-IP; nontransfected HEK293FT lysate with a nonspecific nuclease; 1 μg anti-PELP1 antibody (normal rabbit IgG as control), protein G Sepharose, 4°C; Western blot
[3] = biological target: PELP1 F1112K, C-terminal FLAG tag (human) (UniProt Q8IZL8); experiment: co-IP; anti-FLAG affinity gel; FLAG-tagged PELP1 variants with the exogenous rixosome in HEK293FT; endogenous partners; lysis with or without a nonspecific nuclease (histone bands seen with nuclease); native elution with 3x FLAG peptide, total protein stain; bands identified by mass spectrometry and Western blot
[4] = biological target: PELP1, wild type, C-terminal FLAG tag (human) (UniProt Q8IZL8); experiment: as above
[5] = biological target: SENP3 SUMO protease domain (residues 303 to 574), N-terminal FLAG tag (human) (UniProt Q9H4L4); experiment: co-IP; anti-FLAG M2 affinity gel; N-terminally FLAG-tagged SENP3 truncations as bait, exogenous rixosome co-transfected in HEK293FT; Western blot
[6] = biological target: T1, TEX10, wild type, N-terminal GFP tag (human) (UniProt Q9NXF1); experiment: co-IP; anti-GFP nanobody Sepharose; N-terminally GFP-tagged TEX10 variants as bait, exogenous rixosome including LAS1L-NOL9 co-transfected in HEK293FT; Western blot
T1 sequence: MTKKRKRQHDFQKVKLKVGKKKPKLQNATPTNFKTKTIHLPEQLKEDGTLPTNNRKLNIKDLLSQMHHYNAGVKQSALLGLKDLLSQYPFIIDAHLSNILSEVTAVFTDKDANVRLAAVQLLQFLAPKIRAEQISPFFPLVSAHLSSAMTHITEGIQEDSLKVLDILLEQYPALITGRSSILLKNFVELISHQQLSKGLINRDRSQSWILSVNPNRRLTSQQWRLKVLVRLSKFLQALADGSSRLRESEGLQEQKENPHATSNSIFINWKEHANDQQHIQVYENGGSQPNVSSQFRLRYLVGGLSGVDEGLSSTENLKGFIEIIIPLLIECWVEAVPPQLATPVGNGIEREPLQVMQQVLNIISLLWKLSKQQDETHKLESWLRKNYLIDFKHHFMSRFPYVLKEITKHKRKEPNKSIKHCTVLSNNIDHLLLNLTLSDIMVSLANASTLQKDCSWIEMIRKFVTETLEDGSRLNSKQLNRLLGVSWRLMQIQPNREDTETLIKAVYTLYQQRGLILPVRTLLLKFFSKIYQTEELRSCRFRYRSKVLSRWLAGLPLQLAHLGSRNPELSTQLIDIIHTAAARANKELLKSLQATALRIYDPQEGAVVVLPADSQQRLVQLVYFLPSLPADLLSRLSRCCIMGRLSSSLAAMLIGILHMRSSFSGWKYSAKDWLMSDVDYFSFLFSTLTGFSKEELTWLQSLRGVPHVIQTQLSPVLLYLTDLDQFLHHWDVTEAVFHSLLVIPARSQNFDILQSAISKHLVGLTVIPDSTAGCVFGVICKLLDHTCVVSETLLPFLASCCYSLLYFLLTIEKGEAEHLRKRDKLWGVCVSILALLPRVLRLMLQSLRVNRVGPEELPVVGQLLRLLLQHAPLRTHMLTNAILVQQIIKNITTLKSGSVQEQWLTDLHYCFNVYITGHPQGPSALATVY

[7] = biological target: PELP1 K826R (SUMOylation site lysine 826 to arginine) (human) (UniProt Q8IZL8); experiment: co-IP; anti-FLAG M2 affinity gel; FLAG-tagged PELP1 variants as bait, exogenous rixosome subunits co-transfected in HEK293FT; lysis in 50 mM Hepes pH 7.5, 200 mM NaCl, 5 mM MgCl2, 10% glycerol, 0.5% NP-40, 1 mM DTT, 4°C; SDS-PAGE and Western blot
[8] = biological target: PELP1, wild type, C-terminal FLAG tag (human) (UniProt Q8IZL8); experiment: as above

binding [1] | binding [2] | binding [3] | binding [4] | binding [5] | binding [6] | binding [7] | binding [8] | Substance
binds | binds | no binding | binds | – | – | – | – | endogenous MDN1 (AAA-ATPase) (from UniProt Q9NU22 1-5596) (enzyme)
– | – | – | – | binds | binds | – | – | PELP1, co-expressed rixosome subunit found with TEX10 or SENP3 baits (from UniProt Q8IZL8 1-1130)
– | – | – | – | – | binds | binds | binds | SENP3, co-expressed rixosome subunit found with PELP1 or TEX10 baits (from UniProt Q9H4L4 1-574) (enzyme)
